Results as given in the supplement of paper PMC4967469.

What was measured:
Assay in all cases: Viability of human cancer cell lines after 72 h of drug (GDSC screen)
Epothilone B = compound: C/C(=C\c1csc(C)n1)[C@@H]1C[C@@H]2O[C@]2(C)CCC[C@H](C)[C@H](O)[C@@H](C)C(=O)C(C)(C)[C@@H](O)CC(=O)O1 [Epothilone B]; details: top dose 0.032 µM; top dose inferred
Experimental: (§1)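 Human cancer cell lines in 384-well plates, medium with 10% serum, drug for 72 h over a 256-fold dose range (nine 2-fold or five 4-fold steps up to the top dose). Adherent lines were fixed and stained with the nucleic acid dye Syto60, suspension lines read with resazurin; signal relative to control wells, capped at 0 and 100%. One two-parameter sigmoid per drug and line, fitted in a mixed model over all curves with the slope shared within a line.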

Pyrimethamine = compound: CCc1nc(N)nc(N)c1-c1ccc(Cl)cc1 [Pyrimethamine]; details: top dose 20 µM; top dose inferred
Experimental: as §1

PLX4720 = compound: CCCS(=O)(=O)Nc1ccc(F)c(C(=O)c2c[nH]c3ncc(Cl)cc23)c1F [PLX4720]; details: top dose 10 µM
Experimental: as §1

Y-39983 = compound: C[C@@H](N)c1ccc(C(=O)Nc2ccnc3[nH]ccc23)cc1 [Y-39983]; details: top dose 20 µM; top dose inferred
Experimental: as §1

PHA-793887 = compound: CC(C)CC(=O)Nc1n[nH]c2c1CN(C(=O)C1CCN(C)CC1)C2(C)C [PHA-793887]; details: top dose 10.24 µM
Experimental: as §1

AZD-0530 = compound: CN1CCN(CCOc2cc(OC3CCOCC3)c3c(Nc4c(Cl)ccc5c4OCO5)ncnc3c2)CC1 [AZD-0530]; details: top dose 2 µM
Experimental: as §1

TPCA-1 = compound: NC(=O)Nc1sc(-c2ccc(F)cc2)cc1C(N)=O [TPCA-1]; details: top dose 20 µM
Experimental: as §1

[1] = screen: GDSC drug entry 1371, top dose inferred

In the case of “SBC-1 (small cell lung carcinoma, suspension)”, the AUC (Epothilone B) is reported as 0.945, the IC50 (Epothilone B) is reported as > 0.032 µM and the AUC (Pyrimethamine) is reported as 0.972. For the same cell line, the IC50 (Pyrimethamine) was > 20 µM, the AUC (PLX4720; screen: GDSC drug entry 1036) was 0.988 and the IC50 (PLX4720; screen: GDSC drug entry 1036) was > 10 µM. For the same cell line, the AUC (PLX4720; [1]) was 0.988, the IC50 (PLX4720; [1]) was > 10 µM and the AUC (Y-39983) was 0.989. The IC50 (Y-39983) was > 20 µM, the AUC (PHA-793887) was 0.537 and the IC50 (PHA-793887) was 0.802 µM. For the same cell line, the AUC (AZD-0530) was 0.984, the IC50 (AZD-0530) was > 2 µM and the AUC (TPCA-1) was 0.91. The IC50 (TPCA-1) was > 20 µM.

In the case of SF126 (glioma, adherent), the AUC (Epothilone B) is reported as 0.598, the IC50 (Epothilone B) is reported as 0.00377 µM and the AUC (Pyrimethamine) is reported as 0.863. For the same cell line, the IC50 (Pyrimethamine) was 18.9 µM, the AUC (PLX4720; screen: GDSC drug entry 1036) was 0.986 and the IC50 (PLX4720; screen: GDSC drug entry 1036) was > 10 µM. For the same cell line, the AUC (PLX4720; [1]) was 0.984, the IC50 (PLX4720; [1]) was > 10 µM and the AUC (Y-39983) was 0.94. For the same cell line, the IC50 (Y-39983) was > 20 µM, the AUC (PHA-793887) was 0.974 and the IC50 (PHA-793887) was > 10.2 µM. For the same cell line, the AUC (AZD-0530) was 0.883, the IC50 (AZD-0530) was > 2 µM and the AUC (TPCA-1) was 0.873. For the same cell line, the IC50 (TPCA-1) was > 20 µM.

SF268 (glioma, adherent) was tested, and the AUC (Epothilone B) was 0.596, the IC50 (Epothilone B) was 0.00375 µM and the AUC (Pyrimethamine) was 0.683. The IC50 (Pyrimethamine) was 4.24 µM, the AUC (PLX4720; screen: GDSC drug entry 1036) was 0.985 and the IC50 (PLX4720; screen: GDSC drug entry 1036) was > 10 µM. For the same cell line, the AUC (PLX4720; [1]) was 0.977, the IC50 (PLX4720; [1]) was > 10 µM and the AUC (Y-39983) was 0.885. The IC50 (Y-39983) was > 20 µM, the AUC (PHA-793887) was 0.675 and the IC50 (PHA-793887) was 2.05 µM. The AUC (AZD-0530) was 0.935, the IC50 (AZD-0530) was > 2 µM and the AUC (TPCA-1) was 0.878. The IC50 (TPCA-1) was > 20 µM.

SH-4 (melanoma, adherent) was tested, and the AUC (Epothilone B) was 0.617, the IC50 (Epothilone B) was 0.00503 µM and the AUC (Pyrimethamine) was 0.932. The IC50 (Pyrimethamine) was > 20 µM, the AUC (PLX4720; screen: GDSC drug entry 1036) was 0.485 and the IC50 (PLX4720; screen: GDSC drug entry 1036) was 0.556 µM. The AUC (PLX4720; [1]) was 0.447, the AUC (Y-39983) was 0.935 and the IC50 (Y-39983) was > 20 µM. For the same cell line, the AUC (PHA-793887) was 0.964, the IC50 (PHA-793887) was > 10.2 µM and the AUC (AZD-0530) was 0.852. The IC50 (AZD-0530) was > 2 µM, the AUC (TPCA-1) was 0.834 and the IC50 (TPCA-1) was > 20 µM.

Cell Line “SHP-77 (small cell lung carcinoma, semi-adherent)” has an AUC (Epothilone B) of 0.611, an IC50 (Epothilone B) of 0.0039 µM and an AUC (Pyrimethamine) of 0.918. For the same cell line, the IC50 (Pyrimethamine) was > 20 µM, the AUC (PLX4720; screen: GDSC drug entry 1036) was 0.989 and the IC50 (PLX4720; screen: GDSC drug entry 1036) was > 10 µM. For the same cell line, the AUC (PLX4720; [1]) was 0.991, the IC50 (PLX4720; [1]) was > 10 µM and the AUC (Y-39983) was 0.955. For the same cell line, the IC50 (Y-39983) was > 20 µM, the AUC (PHA-793887) was 0.979 and the IC50 (PHA-793887) was > 10.2 µM. For the same cell line, the AUC (AZD-0530) was 0.97, the IC50 (AZD-0530) was > 2 µM and the AUC (TPCA-1) was 0.927. For the same cell line, the IC50 (TPCA-1) was > 20 µM.

With SIMA (neuroblastoma, adherent) the AUC (Epothilone B) was 0.812, the IC50 (Epothilone B) was 0.0201 µM and the AUC (Pyrimethamine) was 0.935. The IC50 (Pyrimethamine) was > 20 µM, the AUC (PLX4720; screen: GDSC drug entry 1036) was 0.985 and the IC50 (PLX4720; screen: GDSC drug entry 1036) was > 10 µM. The AUC (PLX4720; [1]) was 0.984, the IC50 (PLX4720; [1]) was > 10 µM and the AUC (Y-39983) was 0.962. The IC50 (Y-39983) was > 20 µM, the AUC (PHA-793887) was 0.944 and the IC50 (PHA-793887) was > 10.2 µM. The AUC (AZD-0530) was 0.978, the IC50 (AZD-0530) was > 2 µM and the AUC (TPCA-1) was 0.775. For the same cell line, the IC50 (TPCA-1) was 9 µM.

SJSA-1 (bone, adherent) was tested, and the AUC (Epothilone B) was 0.546, the IC50 (Epothilone B) was 0.00271 µM and the AUC (Pyrimethamine) was 0.658. For the same cell line, the IC50 (Pyrimethamine) was 3.66 µM, the AUC (PLX4720; screen: GDSC drug entry 1036) was 0.978 and the IC50 (PLX4720; screen: GDSC drug entry 1036) was > 10 µM. The AUC (PLX4720; [1]) was 0.982, the IC50 (PLX4720; [1]) was > 10 µM and the AUC (Y-39983) was 0.916. The IC50 (Y-39983) was > 20 µM, the AUC (PHA-793887) was 0.795 and the IC50 (PHA-793887) was 5.44 µM. The AUC (AZD-0530) was 0.975, the IC50 (AZD-0530) was > 2 µM and the AUC (TPCA-1) was 0.915. For the same cell line, the IC50 (TPCA-1) was > 20 µM.

For SK-ES-1 (Ewing sarcoma, semi-adherent), the AUC (Epothilone B) was 0.614, the IC50 (Epothilone B) was 0.00421 µM and the AUC (Pyrimethamine) was 0.656. For the same cell line, the IC50 (Pyrimethamine) was 3.49 µM, the AUC (PLX4720; screen: GDSC drug entry 1036) was 0.919 and the IC50 (PLX4720; screen: GDSC drug entry 1036) was > 10 µM. The AUC (PLX4720; [1]) was 0.97, the IC50 (PLX4720; [1]) was > 10 µM and the AUC (Y-39983) was 0.931. The IC50 (Y-39983) was > 20 µM, the AUC (PHA-793887) was 0.706 and the IC50 (PHA-793887) was 2.55 µM. For the same cell line, the AUC (AZD-0530) was 0.984, the IC50 (AZD-0530) was > 2 µM and the AUC (TPCA-1) was 0.728. For the same cell line, the IC50 (TPCA-1) was 5.83 µM.

IC50 is the fitted dose that halves viability relative to control wells, and lower means more sensitive; a limit (>, <) means that the fit lies beyond the doses tested. AUC sums up the same curve from the lowest dose to the 256-fold higher top dose; values near 1 show little effect. For some of these results: An inferred top dose is not printed in the source and was worked back from the curve model. For some of these results: Drugs with an entry number were screened twice under separate entries, and the two screens often disagree.
